Where “and” joins values, the source holds several entries; their conditions need not be identical. Equal values may be shown once. Hit rate of the full screen: of about 270,000 compounds, about 5,800 (2.1%) were called active. This list was built around the results that the source calls inconclusive (neither active nor inactive); the mix of calls is not that of the screen. The call rests on the fitted dose curve; in most records, active means well fitted inhibition curve with a large enough effect; inconclusive means small, poorly fitted or top-dose-only effect; inactive means flat fitted curve, though single readings scatter. A potency beside an inconclusive call is a rough fit, not a confirmed value. A structure can be active in one record and inactive in another. Peptide text beside a SMILES is read from it. * marks the point of attachment. CH2Cl = ClC*
biological target: Microtubule-associated protein tau (Homo sapiens) (UniProt P10636); experiment: qHTS for Inhibitors of Tau Fibril Formation, Thioflavin T Binding; settings: recombinant tau K18 P301L (four-repeat tau fragment), heparin-induced fibrillization, ThT fluorescence; series mostly up to 57.4 µM; further: nearly all actives have a fitted effect of over 55% in size
Summary of the method: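 Heparin-induced (20 uM) aggregation of recombinant human K18 P301L tau, 15 uM unlabeled with 0.24 uM labeled, pH 7 acetate buffer, 6 hr at 37 C with compound. Fibrils quantified by 30 uM ThT fluorescence after 1 hr ambient incubation.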
Potency means the concentration at half of the fitted maximal effect; tags describe the fitted curve by direction and shape.

UniProt P10636, sequence (P10636 whole entry, looked up, the tested form may be a part): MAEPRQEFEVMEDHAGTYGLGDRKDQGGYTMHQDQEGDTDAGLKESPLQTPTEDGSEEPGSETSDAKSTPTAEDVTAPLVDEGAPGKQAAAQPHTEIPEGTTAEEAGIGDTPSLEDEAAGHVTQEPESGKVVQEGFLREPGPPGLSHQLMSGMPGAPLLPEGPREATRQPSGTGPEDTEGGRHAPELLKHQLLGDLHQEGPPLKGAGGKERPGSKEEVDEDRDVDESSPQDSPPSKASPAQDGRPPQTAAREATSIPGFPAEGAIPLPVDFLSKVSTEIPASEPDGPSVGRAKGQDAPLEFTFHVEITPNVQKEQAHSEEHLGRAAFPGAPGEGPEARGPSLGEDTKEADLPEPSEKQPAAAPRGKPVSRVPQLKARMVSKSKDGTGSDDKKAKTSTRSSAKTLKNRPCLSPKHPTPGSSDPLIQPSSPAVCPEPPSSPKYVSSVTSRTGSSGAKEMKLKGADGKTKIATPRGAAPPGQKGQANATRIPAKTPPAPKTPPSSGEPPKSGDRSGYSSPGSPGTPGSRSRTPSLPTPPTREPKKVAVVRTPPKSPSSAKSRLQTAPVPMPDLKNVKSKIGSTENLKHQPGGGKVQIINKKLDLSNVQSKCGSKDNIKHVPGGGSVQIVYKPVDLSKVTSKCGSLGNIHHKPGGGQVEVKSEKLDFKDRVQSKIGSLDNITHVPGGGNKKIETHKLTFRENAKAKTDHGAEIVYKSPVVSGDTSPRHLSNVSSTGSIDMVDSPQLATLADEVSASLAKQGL

Compound	Potency
O=C(NC(=O)c1c(F)cccc1F)Nc1ccc(Cl)cc1	inactive
Cc1ccc2scc(N3CCN(C)CC3)c(=O)c2c1	inconclusive: 22.4 µM [inhibitor, single point]
COCCNC(=O)c1c(NC(=O)c2ccco2)n(Cc2ccccc2)c2nc3ccccc3nc12	active: 14.1 µM
C[n+]1ccc(-c2ccncc2)cc1	inactive
CCCCn1c(=O)c(C=Nc2cc([N+](=O)[O-])ccc2OC)c(O)n(CCCCl)c1=O	inconclusive: 15.8 µM [inhibitor, partial curve]
COc1ccc(N2C(=O)C(Cl)=C(N3CCN(Cc4ccccc4)CC3)C2=O)cc1	active: 25.1 µM
CCOc1ccc2nc(N3CCC(C(=O)N4CCC5(CC4)OCCO5)CC3)sc2c1	inconclusive: 3.16 µM [inhibitor, partial curve]
COc1cc(C)cc(CN2CC=C(c3ccccc3)CC2)c1O	inconclusive: 14.1 µM [inhibitor, partial curve]
CCOC(=O)Cc1[nH]nc2c1C(c1ccoc1)C(C#N)=C(N)O2 (stereo not given)	inconclusive: 20 µM [inhibitor, single point]
Cc1cc(Br)ccc1N1C(=O)CC(=O)NC1=O	active: 12.6 µM
COc1ccc(N=C2SCCCN2C)cc1	inactive
CN1[C@@H]2CC[C@H]1CC(OC(=O)c1cc(Cl)cc(Cl)c1)C2 (stereo not given in full)	inactive
CCOP(=O)(C1=C(O)C(=O)C(C(C)(C)C)=CC1=O)c1ccccc1 (stereo not given)	active: 22.4 µM
C[C@]12CC[C@H]3[C@@H](CCC4=CC(=O)CC[C@@]43C)[C@@H]1CC[C@@H]2C(=O)CO	inconclusive: 28.2 µM [inhibitor, partial curve, poor fit]
Cc1cc(OC(=O)CCNC(=O)OC(C)(C)C)c2c3c(c(=O)oc2c1)CCC3	inconclusive: 39.8 µM [inhibitor, partial curve]
COc1cccc(N2CCN(Cc3cccc(Cl)c3)CC2)c1	inconclusive: 39.8 µM [inhibitor, single point]
COc1ccc(C(=O)CC2(CC(=O)c3ccc(OC)cc3)C(=O)N(C)C(=O)N(C)C2=O)cc1	inactive
COC(=O)c1ccc(N2C(=O)CC(N3CCC(n4c(=O)[nH]c5ccccc54)CC3)C2=O)cc1 (stereo not given)	inactive
C=C(C)C(=O)CP(=O)(OCC)OCC	inactive
C[C@H](N)C(=O)N[C@@H](C)C(=O)N[C@@H](Cc1ccccc1)C(=O)CCl (H-Ala-Ala-Phe-CH2Cl)	inconclusive: 0.562 µM [inhibitor, single point]
CCOC(=O)c1c(C)n(COCCO)c2ccc(O)cc12	inconclusive: 6.31 µM [activator, partial curve]
CCCCC/C=C\C/C=C\C/C=C\C/C=C\CCCC(=O)OCCN	inconclusive: 39.8 µM [inhibitor, single point]

Compound	Potency
Cc1cccc2c(CCN)c[nH]c12	inconclusive: 39.8 µM [inhibitor, single point]
CCn1c(O)c(C(=O)CC2NCCc3ccccc32)c(=O)n(CC)c1=S (stereo not given)	inconclusive: 1 µM [inhibitor, partial curve]
CN1CC[C@@H]2CN3CCc4cccc(c43)[C@@H]2C1	inconclusive: 28.2 µM [inhibitor, partial curve]
c1ccc(SSc2ccccc2)cc1	active: 25.1 µM
Clc1ccc2nc3c(c(-c4ccccc4)c2c1)CNCC3	inconclusive: 17.8 µM [inhibitor, partial curve]
Cc1cc(/C=C2/C(=O)NC(=O)N(c3ccc(Br)cc3)C2=O)c(C)n1C	inconclusive: 39.8 µM [inhibitor, single point]
CCN(CC)c1ccc(CC2C(=O)N(C)C(=O)N(C)C2=O)cc1	inconclusive: 15.8 µM [inhibitor, partial curve]
C[C@H]1O[C@@H](O[C@H]2[C@@H](O)C[C@H](O[C@H]3[C@@H](O)C[C@H](O[C@H]4CC[C@@]5(C)[C@H](CC[C@@H]6[C@@H]5CC[C@]5(C)[C@@H](C7=CC(=O)OC7)CC[C@]65O)C4)O[C@@H]3C)O[C@@H]2C)C[C@H](O)[C@@H]1O	inconclusive: 14.1 µM [inhibitor, partial curve]
CCOC(=O)C1CCN(/C=C2/C(=O)NC(=O)N(c3cccc(C)c3C)C2=O)CC1	inactive
COc1cc2c(cc1OC)[C@@H]1C(=O)c3ccc4c(c3O[C@@H]1CO2)C[C@H](C(C)C)O4	inconclusive: 20 µM [inhibitor, partial curve]
CN(C)c1ccc(/C=C/[N+](=O)[O-])cc1	active: 10 µM
CCN(CC)c1ccc(/C=C2\C(=O)NC(=O)N(CC3CCCO3)C2=O)cc1 (stereo not given)	inconclusive: 10 µM [inhibitor, partial curve]
CCCCOc1nc2ccccc2c(=O)n1-c1ccccc1	inactive
CCN(CC)c1ccc(N=Cc2c(O)n(-c3ccc(OC)cc3)c(=O)[nH]c2=O)cc1	inconclusive: 17.8 µM [inhibitor, partial curve]
CC(C)Cc1nnc(NC(=O)CCC(=O)N2CCN(CCOC(c3ccccc3)c3ccccc3)CC2)s1	inconclusive: 14.1 µM [inhibitor, single point]
O=C1NC(=O)C(=Cc2ccc(N3CCOCC3)o2)C(=O)N1	inconclusive: 20 µM [inhibitor, single point]
CCC(=NCCN1CCCCC1)c1c(O)n(C)c(=O)n(C)c1=O	inconclusive: 17.8 µM [inhibitor, partial curve]
O=C(CNC(=O)c1cccs1)NCC(=O)OCC(=O)c1ccc([N+](=O)[O-])cc1	inconclusive: 17.8 µM [inhibitor, partial curve]
CCc1ccc(CN2CCN(C(=O)Cc3ccccc3)CC2)cc1	inactive
COc1cccc(-n2c(/C=C/c3cccc(C)c3)nc3ccccc3c2=O)c1	inconclusive: 20 µM [inhibitor, single point]
O=C1NC(=O)C(=Cc2ccc(N3CCOCC3)cc2)C(=O)N1	inconclusive: 3.55 µM [inhibitor, full curve]
Cn1c(O)c(/C=N/NC(=O)c2ccncc2)c(=O)[nH]c1=S	inconclusive: 11.2 µM [inhibitor, partial curve]

Compound	Potency
O=C1NC(=O)C2(Cc3ccccc3N3CCCC32)C(=O)N1Cc1ccccc1 (stereo not given)	inconclusive: 31.6 µM [inhibitor, single point]
Cc1ccccc1NC(=O)c1cc(-c2ccccc2)n(CCCN2CCOCC2)c1C	inconclusive: 11.2 µM [inhibitor, partial curve, poor fit]
CC(=O)N1N=C2C3CCN(CC3)C2C1c1cccc2ccccc12 (stereo not given)	inactive
CC(=O)c1ccc2c(c1)C1C(Cl)C(Sc3ccccc3[N+](=O)[O-])CC1C(c1ccccc1)N2 (stereo not given)	inconclusive: 5.62 µM [inhibitor, full curve]
CCOC(=O)c1ccc(NC(=O)CSc2nc3c(cc2C#N)N2CCC3CC2)cc1	inconclusive: 0.398 µM [inhibitor, full curve, poor fit]
COc1cccc(CN2C(=O)C3(SCC(=O)N3c3ccc(C)c(Cl)c3)c3ccccc32)c1 (stereo not given)	inconclusive: 28.2 µM [inhibitor, single point]
COCCN1C(=O)NC(=O)/C(=C\c2ccc(F)cc2)C1=O	inconclusive: 3.16 µM [inhibitor, full curve]
O=c1[nH]c(=O)n(-c2ccccc2)c(O)c1/C=C1/C(c2ccccc2)=Nc2ccccc21	inconclusive: 25.1 µM [inhibitor, partial curve]
CC1=CC2/C=C(\C)CCC(O)C(O)/C=C/C(=O)C23C(=O)NC(CC(C)C)C3C1C (stereo not given)	inconclusive: 31.6 µM [inhibitor, single point]
O=C(c1cccc(N2CCCC2=O)c1)N1CCC2(CC1)OCCO2	inactive
Cc1c(C)n(O)c2ccc3nonc3c12	active: 31.6 µM
COC[C@H]1OC(=O)c2coc3c2[C@@]1(C)C1=C(C3=O)C2CCC(=O)[C@@]2(C)C[C@H]1OC(C)=O (stereo not given in full)	inactive and active: 14.1 µM and active: 17.8 µM
O=C1/C(=C/c2ccc([N+](=O)[O-])cc2)N2CCC1CC2	inconclusive: 39.8 µM [inhibitor, single point]
COc1ccc(O)c(C(=O)c2cnn(-c3ccccn3)c2)c1	inconclusive: 20 µM [inhibitor, single point]
C=CCN1CCC23c4c5ccc(O)c4OC2/C(=N/N=C2\CCC4(O)C6Cc7ccc(O)c8c7C4(CCN6CC=C)C2O8)CCC3(O)C1C5 (stereo not given)	inconclusive: 25.1 µM [inhibitor, partial curve]
C[C@H](NC(=O)[C@@H](N)Cc1ccc(O)cc1)C(=O)NCC(=O)N(C)[C@@H](Cc1ccccc1)C(=O)NCCO	inactive
O=C1CC(=O)N(c2ccc3c(c2)OCO3)C(=O)N1	inconclusive: 8.91 µM [inhibitor, partial curve]
Fc1ccc(C(OCCN2CCN(C/C=C/c3ccccc3)CC2)c2ccc(F)cc2)cc1	inconclusive: 28.2 µM [inhibitor, partial curve]
CCOC(=O)[C@]1(C#N)[C@@H]2C=CC(C(C)=O)=CN2[C@@H](C(N)=O)[C@@H]1c1ccsc1	active: 31.6 µM
O=c1[nH]c(=O)n(-c2cccc(Cl)c2)c(O)c1/C=N/c1ccccn1	inconclusive: 8.91 µM [inhibitor, partial curve]
COc1cc(/C=N/NP(=S)(c2ccccc2)c2ccccc2)ccc1O	inconclusive: 7.94 µM [inhibitor, partial curve]

Reference: PubChem BioAssay AID1460 (National Center for Advancing Translational Sciences (NCATS), 2008)
